The supplement of paper PMC9990464
Some of the results follow. Repeats are few or missing, and single values can be far off.

These compounds were tested on KCNR (assay: area under viability curve (10 nM-1 µM), viability relative to solvent or trametinib-only control (AUC (arbitrary, % viability x concentration range)); higher = less growth inhibition (more viable cells)). Conditions: 72 h compound exposure (96 h after seeding) h; trametinib co-treatment 0 µM.
Method: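 Four neuroblastoma cell lines (KCNR, SKNBE, SJNB8, SKNAS) were seeded in 384-well plates. At 24 h, 1 µM trametinib or DMSO was added, followed by library compounds at 10 nM, 100 nM and 1 µM. Viability was read by MTT at 96 h and normalised to solvent-treated cells (DMSO arm) or to trametinib-only cells (trametinib arm). The area under the 3-point viability curve was computed in GraphPad Prism; units are as given (approx. 100000 = no effect).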
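Also: KCNR is a neuroblastoma cell line carrying an ALK mutation, in this DMSO arm without trametinib, viability was normalised to solvent-treated cells.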

| SMILES | area under viability curve |
| --- | --- |
| Cc1cn([C@H]2C[C@H](O)[C@@H](CO)O2)c(=O)nc1N [2'-Deoxy-5-methylcytidine] | 105000 |
| O=C1c2ccccc2C(=O)c2c(NCCc3ccc(O)cc3)ccc(NCCc3ccc(O)cc3)c21 | 101000 |
| COC(=O)[C@]12CCC(C)(C)C[C@H]1[C@H]1C(=O)C=C3[C@@]4(C)C=C(C#N)C(=O)C(C)(C)[C@@H]4CC[C@@]3(C)[C@]1(C)CC2 [Bardoxolone methyl] | 48900 |
| CC(=O)O[C@H]1C(=O)[C@@]2(C)[C@H]([C@H](OC(=O)c3ccccc3)[C@]3(O)C[C@H](OC(=O)[C@H](O)[C@@H](NC(=O)c4ccccc4)c4ccccc4)C(C)=C1C3(C)C)[C@]1(OC(C)=O)CO[C@@H]1C[C@@H]2O [7-epi-Taxol] | 17400 |
| C=C(C)[C@@H](CC=C(C)C)C[C@@]12C[C@@H](CC=C(C)C)C(C)(C)[C@@](CC=C(C)C)(C(=O)C(C(=O)c3ccc(O)c(O)c3)=C1O)C2=O [Garcinol] | 103000 |
| COc1nc(N)nc2c1ncn2[C@@H]1O[C@H](CO)[C@@H](O)[C@@H]1O [Nelarabine] | 108000 |
| Cc1nc(=O)c2cc(CN(C)c3ccc(C(=O)N[C@@H](CCC(=O)O)C(=O)O)s3)ccc2[nH]1 [Raltitrexed] | 60500 |
| O=C(NC[C@H](O)CO)c1ccncc1Nc1ccc(I)cc1F [Pimasertib] | 98600 |
| Cc1nc(Nc2ncc(C(=O)Nc3c(C)cccc3Cl)s2)cc(N2CCN(CCO)CC2)n1 [Dasatinib] | 80900 |
| Cc1cccn2c(=O)c(C=C(C#N)c3nc4ccccc4s3)c(Oc3ccc(F)cc3)nc12 | 99000 |
| Oc1ccc(/C=C/c2cc(O)cc(O)c2)cc1 [Resveratrol] | 104000 |
| O=C(/C=C/C#Cc1cccc(NS(=O)(=O)c2ccccc2)c1)NO [Oxamflatin] | 42300 |
| CC[C@@]1(O)C(=O)OCc2c1cc1n(c2=O)Cc2cc3c([N+](=O)[O-])cccc3nc2-1 [Rubitecan] | 51400 |
| CC(C(=O)Nc1cccc(/N=C/c2c(O)ccc3ccccc23)c1)c1ccccc1 (stereo not given) [Salermide] | 107000 |
| O=C(O)CCCc1ccccc1 [Phenylbutyrate·Na] | 102000 |
| COc1cc2c(Oc3ccc(NC(=O)C4(C(=O)Nc5ccc(F)cc5)CC4)cc3F)ccnc2cc1OCCCN1CCOCC1 [Foretinib] | 69800 |
| CC(/C=C/C(=O)NO)=C\[C@@H](C)C(=O)c1ccc(N(C)C)cc1 [Trichostatin A] | 39500 |
| CC(C)(C#N)c1cc(Cn2cncn2)cc(C(C)(C)C#N)c1 [Anastrozole] | 98500 |
| Oc1cc(O)cc(/C=C/c2ccc(O)c(O)c2)c1 [Piceatannol] | 103000 |
| COc1cccc2c1C(=O)c1c(O)c3c(c(O)c1C2=O)C[C@@](O)(C(=O)CO)C[C@@H]3O[C@H]1C[C@H](N)[C@H](O)[C@H](C)O1 [Adriamycin] | 8620 |

Same assay, conditions: 72 h compound exposure (96 h after seeding) h; trametinib co-treatment 1 µM

| SMILES | area under viability curve |
| --- | --- |
| Cc1cn([C@H]2C[C@H](O)[C@@H](CO)O2)c(=O)nc1N [2'-Deoxy-5-methylcytidine] | 98400 |
| O=C1c2ccccc2C(=O)c2c(NCCc3ccc(O)cc3)ccc(NCCc3ccc(O)cc3)c21 | 104000 |
| COC(=O)[C@]12CCC(C)(C)C[C@H]1[C@H]1C(=O)C=C3[C@@]4(C)C=C(C#N)C(=O)C(C)(C)[C@@H]4CC[C@@]3(C)[C@]1(C)CC2 [Bardoxolone methyl] | 42600 |
| CC(=O)O[C@H]1C(=O)[C@@]2(C)[C@H]([C@H](OC(=O)c3ccccc3)[C@]3(O)C[C@H](OC(=O)[C@H](O)[C@@H](NC(=O)c4ccccc4)c4ccccc4)C(C)=C1C3(C)C)[C@]1(OC(C)=O)CO[C@@H]1C[C@@H]2O [7-epi-Taxol] | 20600 |
| C=C(C)[C@@H](CC=C(C)C)C[C@@]12C[C@@H](CC=C(C)C)C(C)(C)[C@@](CC=C(C)C)(C(=O)C(C(=O)c3ccc(O)c(O)c3)=C1O)C2=O [Garcinol] | 105000 |
| COc1nc(N)nc2c1ncn2[C@@H]1O[C@H](CO)[C@@H](O)[C@@H]1O [Nelarabine] | 103000 |
| Cc1nc(=O)c2cc(CN(C)c3ccc(C(=O)N[C@@H](CCC(=O)O)C(=O)O)s3)ccc2[nH]1 [Raltitrexed] | 51500 |
| O=C(NC[C@H](O)CO)c1ccncc1Nc1ccc(I)cc1F [Pimasertib] | 103000 |
| Cc1nc(Nc2ncc(C(=O)Nc3c(C)cccc3Cl)s2)cc(N2CCN(CCO)CC2)n1 [Dasatinib] | 79800 |
| Cc1cccn2c(=O)c(C=C(C#N)c3nc4ccccc4s3)c(Oc3ccc(F)cc3)nc12 | 100000 |
| Oc1ccc(/C=C/c2cc(O)cc(O)c2)cc1 [Resveratrol] | 99100 |
| O=C(/C=C/C#Cc1cccc(NS(=O)(=O)c2ccccc2)c1)NO [Oxamflatin] | 23100 |
| CC[C@@]1(O)C(=O)OCc2c1cc1n(c2=O)Cc2cc3c([N+](=O)[O-])cccc3nc2-1 [Rubitecan] | 45700 |
| CC(C(=O)Nc1cccc(/N=C/c2c(O)ccc3ccccc23)c1)c1ccccc1 (stereo not given) [Salermide] | 99600 |
| O=C(O)CCCc1ccccc1 [Phenylbutyrate·Na] | 98700 |
| COc1cc2c(Oc3ccc(NC(=O)C4(C(=O)Nc5ccc(F)cc5)CC4)cc3F)ccnc2cc1OCCCN1CCOCC1 [Foretinib] | 67400 |
| CC(/C=C/C(=O)NO)=C\[C@@H](C)C(=O)c1ccc(N(C)C)cc1 [Trichostatin A] | 10400 |
| CC(C)(C#N)c1cc(Cn2cncn2)cc(C(C)(C)C#N)c1 [Anastrozole] | 99800 |
| Oc1cc(O)cc(/C=C/c2ccc(O)c(O)c2)c1 [Piceatannol] | 103000 |
| COc1cccc2c1C(=O)c1c(O)c3c(c(O)c1C2=O)C[C@@](O)(C(=O)CO)C[C@@H]3O[C@H]1C[C@H](N)[C@H](O)[C@H](C)O1 [Adriamycin] | 5420 |
